The values below come from the supplement of paper PMC6609913.

Where a name gives a salt, the structure may show the parent alone. ± gives the standard deviation of the averaged measurements. The full ranking holds about 1,300 compounds; the median of “normalised cell viability” is about 1, and the lowest 2% start at about 0.15. This is one part of the list.

This experiment deals with V-C8 + BRCA2 (BRCA2-proficient hamster cells). Briefly: normalised cell viability (fraction of plate median); higher = more viable cells (less toxic). The conditions noted are these: 5 µM. In short, it runs like this:
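Hamster V-C8 cells with and without restored BRCA2 were exposed in 96-well plates to library drugs at 5 μM for 3 days (screen 1) or 6 days (screen 2). Cell viability was scored by resazurin assay, then median-plate normalised, averaging triplicate wells.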

As to `C=CC[C@]1(O)CC[C@H]2[C@@H]3CCC4=CC(=O)CCC4=C3C=C[C@@]21C` [Altrenogest], the normalised cell viability is, setting by setting: (treatment time: 3 days) 0.914 ± 0.02; (treatment time: 6 days) 0.926 ± 0.048.
For `CC(Cc1ccc(O)cc1)NCC(O)c1cc(O)cc(O)c1` (stereo not drawn) [Fenoterol hydrobromide], the normalised cell viability runs as follows: (treatment time: 3 days) 1.03 ± 0.031; (treatment time: 6 days) 1.1 ± 0.068.
The like results for `C=C1[C@@H]2CC[C@H]3[C@]4(C)C[C@H](O[C@@H]5O[C@H](CO)[C@@H](OS(=O)(=O)O)[C@H](OS(=O)(=O)O)[C@H]5OC(=O)CC(C)C)C[C@@H](C(=O)O)[C@H]4CC[C@]3(C2)[C@@H]1O` [Atractyloside potassium salt] were, in that order, 1.08 ± 0.093 and 1.15 ± 0.031.
For the compound `C1CCc2nnnn2CC1` [Pentylenetetrazole], the normalised cell viability (treatment time: 3 days) was found to be 1 ± 0.032 and the normalised cell viability (treatment time: 6 days) was 1.02 ± 0.06.
Turning to `CN1CCN(C(=O)OC2c3nccnc3C(=O)N2c2ccc(Cl)cn2)CC1` (stereo not drawn) [Zopiclone], the normalised cell viability reads like this: (treatment time: 3 days) 1.06 ± 0.024; (treatment time: 6 days) 1.04 ± 0.054.
In the case of `Clc1ccc(C(OCCN2CCCCC2)c2ccccc2)cc1` (stereo not drawn) [Cloperastine hydrochloride], the normalised cell viability was 0.846 ± 0.025 (treatment time: 3 days) and 0.853 ± 0.081 (treatment time: 6 days).
The like results for `C[C@]12CC[C@H](O)C[C@H]1CC[C@@H]1[C@@H]2C[C@@H](O)[C@]2(C)[C@@H](C3=CC(=O)OC3)CC[C@]12O` [Digoxigenin] were, in that order, 0.962 ± 0.11 and 0.986 ± 0.056.
The like results for `CC(Cc1ccccc1)NCCC(c1ccccc1)c1ccccc1` (stereo not drawn) [Prenylamine lactate] were, in that order, 0.953 ± 0.07 and 0.886 ± 0.028.
For `CC(=O)NC1CCSC1=O` (racemic) [N-Acetyl-DL-homocysteine Thiolactone], in that order: 1.05 ± 0.096 and 1.06 ± 0.11.
For the compound `NC(=O)C[S+]([O-])C(c1ccccc1)c1ccccc1` (stereo not drawn) [Modafinil], the normalised cell viability reads like this: (treatment time: 3 days) 1.05 ± 0.1; (treatment time: 6 days) 1.07 ± 0.069.
On to `Cc1cccc(C)c1NC1=NCCCS1` [Xylazine], for which the normalised cell viability came out at 1.05 ± 0.046 (treatment time: 3 days) and 0.973 ± 0.029 (treatment time: 6 days).
Take `O=P1(NCCCl)OCCCN1CCCl` (stereo not drawn) [Ifosfamide]: the normalised cell viability reads like this: (treatment time: 3 days) 1 ± 0.021; (treatment time: 6 days) 1 ± 0.032.
For `CC(C)c1c(CN(C)C(C)Cc2ccccc2)n(C)n(-c2ccccc2)c1=O` (stereo not drawn) [Famprofazone], in that order: 1 ± 0.079 and 1.08 ± 0.035.
Take `C=C(C)[C@@H]1[C@H]2OC(=O)[C@@H]1[C@]1(O)C[C@H]3O[C@]34C(=O)O[C@H]2[C@]14C` [Picrotoxinin]: the normalised cell viability (treatment time: 3 days) turned out to be 1.13 ± 0.15 and the normalised cell viability (treatment time: 6 days) was found to be 1.021 ± 0.0072.
The like results for `COc1cc2c(cc1OC)C(C)NCC2` (stereo not drawn) were, in that order, 1.01 ± 0.033 and 1.03 ± 0.042.
The like results for `NC(=O)CN1CCCC1=O` [Piracetam] were, in that order, 1.05 ± 0.076 and 1.02 ± 0.061.
With `CC(=O)OCC(=O)[C@H]1CC[C@H]2[C@@H]3CC[C@H]4C[C@H](O)CC[C@]4(C)[C@H]3C(=O)C[C@]12C` [Alfadolone acetate], the normalised cell viability is 1.06 ± 0.031 (treatment time: 3 days) and 0.9646 ± 0.0091 (treatment time: 6 days).
In the case of `CC(=O)OCC1=C(C(=O)O)N2C(=O)[C@@H](N)[C@H]2SC1` [Cephalosporanic acid, 7-amino], the normalised cell viability stood at 1.02 ± 0.013 (treatment time: 3 days) and 1.13 ± 0.051 (treatment time: 6 days).
The like results for `CO[C@]12C[C@@H](COC(=O)c3cncc(Br)c3)CN(C)[C@@H]1Cc1cn(C)c3cccc2c13` [Nicergoline] were, in that order, 0.81 ± 0.019 and 0.926 ± 0.01.
Regarding `C[N+]12CCC(CC1)C(OC(=O)C(O)(c1ccccc1)c1ccccc1)C2` (stereo not drawn) [Clidinium bromide], the normalised cell viability was 1.018 ± 0.0066 (treatment time: 3 days) and 1.01 ± 0.061 (treatment time: 6 days).
With `C[C@@]12N[C@@H](Cc3ccccc31)c1ccccc12` [(-)-MK 801 hydrogen maleate], the normalised cell viability came to 0.997 ± 0.018 (treatment time: 3 days) and 1.02 ± 0.1 (treatment time: 6 days).
Turning to `C[C@]12Cc3c[nH]nc3C[C@@H]1CC[C@@H]1[C@@H]2CC[C@@]2(C)[C@H]1CC[C@]2(C)O` [Stanozolol], the normalised cell viability by setting is: (treatment time: 3 days) 1.04 ± 0.039; (treatment time: 6 days) 0.9666 ± 0.0087.
The like results for `CC(C)C[C@H](CN)CC(=O)O` [Pregabalin] were, in that order, 1.007 ± 0.0072 and 1.04 ± 0.075.
Consider `CC(C)(C)NCC(O)c1ccccc1Cl` (stereo not drawn) [Tulobuterol], for which the normalised cell viability worked out at 1.033 ± 0.0099 (treatment time: 3 days) and 1.02 ± 0.018 (treatment time: 6 days).
Take `COc1cc([C@@H]2c3cc4c(cc3[C@H](O)[C@H]3COC(=O)[C@H]23)OCO4)cc(OC)c1OC` [Podophyllotoxin]: the normalised cell viability (treatment time: 3 days) was 0.143 ± 0.0046 and the normalised cell viability (treatment time: 6 days) is 0.136 ± 0.016.
The like results for `CCNC1(c2cccs2)CCCCC1=O` (stereo not drawn) [Tiletamine hydrochloride] were, in that order, 1.07 ± 0.04 and 0.997 ± 0.024.
The like results for `C[C@@H]1CC[C@H]2[C@@H](C)C(=O)O[C@@H]3O[C@@]4(C)CC[C@@H]1[C@]32OO4` [Artemisinin] were, in that order, 0.794 ± 0.024 and 0.87 ± 0.095.
Take `CCC1(c2cccc(O)c2)CCCCN(C)C1` (stereo not drawn) [Meptazinol hydrochloride]: the normalised cell viability amounted to 1.06 ± 0.031 (treatment time: 3 days) and 1.06 ± 0.043 (treatment time: 6 days).
For `CCN(C(C)=O)c1cccc(-c2ccnc3c(C#N)cnn23)c1` [Zaleplon], in that order: 1.03 ± 0.018 and 0.987 ± 0.083.
For `NCCc1c[nH]c2ccc(O)cc12` [Serotonin hydrochloride], in that order: 1.06 ± 0.04 and 1.05 ± 0.07.
For the compound `CCC(COC(=O)c1cc(OC)c(OC)c(OC)c1)(c1ccccc1)N(C)C` (stereo not drawn) [Trimebutine], the normalised cell viability worked out at 1.19 ± 0.048 (treatment time: 3 days) and 1.23 ± 0.047 (treatment time: 6 days).
For `COc1ccc(Cc2nccc3cc(OC)c(OC)cc23)cc1OC` [Papaverine hydrochloride], the normalised cell viability (treatment time: 3 days) worked out at 0.793 ± 0.032 and the normalised cell viability (treatment time: 6 days) came to 0.807 ± 0.095.
The like results for `CCC1(CC)C(=O)C=CNC1=O` [Pyrithyldione] were, in that order, 1.07 ± 0.09 and 0.962 ± 0.023.
Take `CC(C)(C)NCC(O)c1cc(Cl)c(N)c(Cl)c1` (stereo not drawn) [Clenbuterol hydrochloride]: the normalised cell viability is, setting by setting: (treatment time: 3 days) 1.15 ± 0.022; (treatment time: 6 days) 1.02 ± 0.029.
